# Data from PubChem BioAssay AID686979 (National Center for Advancing Translational Sciences (NCATS), 2013).
# The campaign covered roughly 420,000 compounds. About 50,000 (12%) were called active. This list was built around the results that the source calls inconclusive (neither active nor inactive); the mix of calls is not that of the screen. The call rests on the fitted dose curve; in most records, active means well fitted inhibition curve with a large enough effect; inconclusive means small, poorly fitted or top-dose-only effect; inactive means flat fitted curve, though single readings scatter. Potencies of inconclusive entries are left out as doubtful fits.
# Test: qHTS for Inhibitors of human tyrosyl-DNA phosphodiesterase 1 (TDP1): qHTS in cells in presence of CPT; further: nearly all actives have a fitted effect of over 55% in size
# Settings: chicken DT40 Tdp1-/-;hTDP1 cells + 20 nM CPT, ATP luminescence, 48 h; series mostly up to 46.2 µM
# How it was run: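 Chicken DT40 Tdp1-/- cells stably complemented with human TDP1 were seeded at 400 cells/well in medium containing 20 nM camptothecin, exposed to pin-transferred compounds, and grown at 37 °C for at least 48 hr. Viability was read as ATP luminescence.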
# Potency means the concentration at half of the fitted maximal effect; tags describe the fitted curve by direction and shape.
row,Compound,Potency
1,CC(C)(C)OC(=O)NC(CO)c1cn([C@@H](Cc2cc3ccccc3[nH]2)C(=O)N2CCN(C(=O)OC(C)(C)C)CC2)nn1 (some centres not stated),"inconclusive [inhibitor, single point]"
2,O=C(Nc1ccccc1)C1Cc2c(-c3ccco3)ccnc2O1 (configuration not stated),"inconclusive [inhibitor, single point]"
3,COc1ccccc1NC(=S)N(Cc1ccco1)Cc1cc2cc(C)c(C)cc2[nH]c1=O,active: 4.11 µM
4,Cc1ccc(C2(CCNS(=O)(=O)c3ccc(C)cc3)CCOC(C(C)C)C2)cc1 (configuration not stated),"inconclusive [inhibitor, single point]"
5,CNC(=S)N(Cc1ccco1)Cc1cc2cc3c(cc2[nH]c1=O)OCCO3,"inconclusive [inhibitor, single point]"
6,CC1CCC(C(C)C)C2=C1C(C#N)(C#N)C(C#N)(C#N)C(c1ccccc1)N2 (configuration not stated),"inconclusive [inhibitor, single point]"
7,CC(C)(C)c1ccccc1OCCOCCN1CCCCCC1,"inconclusive [inhibitor, single point]"
8,CC(NC(=O)C1CCN(c2nnc(-n3cccc3)s2)CC1)C12CC3CC(CC(C3)C1)C2 (configuration not stated),active: 16.4 µM
9,COc1ccc(N(CC(=O)Nc2cccc(N(C)S(C)(=O)=O)c2)S(=O)(=O)c2ccc(F)cc2)cc1,active: 16.4 µM
10,CCOc1nc(NC2CCCC2)nc(N2CCC(C)CC2)n1,"inconclusive [inhibitor, single point]"
11,COC(=O)c1ccc(NC(=O)CC2C(=O)N(c3ccccc3)C(=O)N2C2CCCC2)cc1 (configuration not stated),"inconclusive [inhibitor, partial curve]"
12,COc1ccc2oc(C(=O)N(C)CCOc3ccccc3)c(C)c2c1,inactive
13,Cn1c(SCCOc2ccc(F)cc2)nnc1-c1ccncc1,inactive
14,CN=c1scc(-c2cccs2)n1/N=C/c1ccccc1O,"inconclusive [inhibitor, single point]"
15,CN(CC(=O)Nc1ccc(F)cc1)C(=O)COc1ccc(C(=O)c2ccccc2)cc1,"inconclusive [inhibitor, single point]"
16,CC(=O)N1CCCc2cc(S(=O)(=O)NCc3ccc(N(C)C)cc3)ccc21,"inconclusive [inhibitor, single point]"
17,COc1ccc(S(=O)(=O)N2CCN(c3ncccn3)CC2)cc1,"inconclusive [inhibitor, single point]"
18,CC(C)CN(C(=O)c1ccc(S(=O)(=O)N2CCCC2)cc1)C1CCS(=O)(=O)C1 (configuration not stated),"inconclusive [inhibitor, single point]"
19,CN(CCC(=O)c1ccccc1)CCC(=O)c1ccccc1,active: 4.61 µM
20,COCCCNC(=O)CSc1nc2nc(C)c(Cc3ccccc3Cl)c(C)n2n1,"inconclusive [inhibitor, partial curve]"
21,CC(C)(C)OC(=O)C[C@H]1C/C=C\C[C@@H](CC(=O)N(CCO)Cc2ccccc2)C(=O)N[C@H](Cc2c[nH]c3ccccc23)COC1=O,"inconclusive [inhibitor, single point]"
22,Clc1cccc(-c2cccc3nccn23)c1Cl,"inconclusive [inhibitor, single point]"
23,Clc1nc(Cl)c2ncn(-c3ccccc3)c2n1,active: 8.2 µM
24,Cc1cnc(-c2nc3ccccc3n2C(C(=O)Nc2c(C)cccc2C)C2CC2)cn1 (configuration not stated),"inconclusive [inhibitor, single point]"

row,Compound,Potency
1,COc1ccc(NC(=O)C2Cc3c(-c4cccc(F)c4)ccnc3O2)cc1 (configuration not stated),active: 20.6 µM
2,COc1cccc(C(=O)Nc2ccc3nc(SCc4ccc(C)cc4)sc3c2)c1,active: 16.4 µM
3,CCNc1nc(SCC(=O)Nc2ccccc2)nc(N2CCOCC2)n1,"inconclusive [inhibitor, partial curve]"
4,Cc1cccc(-n2c(SCC(=O)Nc3ccccc3Cl)nc3n[nH]c(C)c3c2=N)c1,active: 14.6 µM
5,CCCC(=O)N(c1ccc(OCC)cc1)S(=O)(=O)c1ccc2c3c(cccc13)C(=O)N2C,active: 14.6 µM
6,COc1cccc(CNC(=O)c2n[nH]c3ccccc23)c1,"inconclusive [inhibitor, single point]"
7,Cc1ccccc1C(=O)NC(=S)N(C)CCc1ccccn1,inactive
8,O=C(N/N=C/c1c[nH]c2ccccc12)c1cc(-c2ccc3ccccc3c2)n[nH]1,active: 3.66 µM
9,O=C(/C=C/c1cccc([N+](=O)[O-])c1)NCc1ccco1,inactive
10,O=C(c1cnsn1)N1CCOc2ccc(C(O)C(c3ccccc3)c3ccccc3)cc2C1 (configuration not stated),"inconclusive [inhibitor, single point]"
11,O=C(NCCc1ccccc1O)c1cc2c(cc1[N+](=O)[O-])OCO2,inactive
12,CSCC[C@H](NC(=O)N1CCn2c1nc1ccccc12)C(=O)NCc1ccco1,"inconclusive [inhibitor, single point]"
13,CCn1c2ccccc2c2nc3cc(S(=O)(=O)N4CCOCC4)ccc3nc21,active: 14.6 µM
14,O=C(Nn1cnc2ccccc2c1=O)c1ccccc1,inactive
15,CC(/C=C/c1ccco1)=N\NC(=O)c1cccc(Cl)c1,"inconclusive [inhibitor, single point]"
16,O=C(COC(=O)/C=C/c1cccc(F)c1)NC(=O)NC1CCCC1,"inconclusive [inhibitor, single point]"
17,COc1cc2c(cc1OC)[C@@H](Cc1ccc(OCCC#N)cc1)N(C)CC2,"inconclusive [inhibitor, single point]"
18,CCOc1ccc(C(=O)Nc2cccc(-c3cc4ccccc4oc3=O)c2)cc1[N+](=O)[O-],active: 23.1 µM
19,CC1(C)CC2CC(C)(CN2C(=O)COC(=O)c2ccccc2C(F)(F)F)C1 (configuration not stated),"inconclusive [inhibitor, single point]"
20,COc1ccc(C2NCCc3sccc32)cc1 (configuration not stated),inactive
21,Cc1ccc(C2=CSC3=NNC4(CCCCC4)NN23)cc1,"inconclusive [inhibitor, partial curve]"
22,COCCn1c(SCC(=O)c2ccccc2)nc2c(c1=O)SC(C)C2 (configuration not stated),active: 23.1 µM
23,COc1ccc(NC(=O)CCNC(=O)Cn2ccc3ccccc3c2=O)cc1Cl,inactive
24,Nc1nonc1-n1nnc(C(=O)N/N=C/c2cccc(Cl)c2)c1-c1cccs1,inactive

row,Compound,Potency
1,O=C(CC1c2cc(F)ccc2C=C(c2ccsc2)N1c1ccc(C#CCCO)cc1)c1ccco1 (configuration not stated),"inconclusive [inhibitor, single point]"
2,Cc1ccc2nc(-c3ccc(NC(=O)Cc4cccs4)cc3)[nH]c2c1,active: 23.1 µM
3,O=C(NCC(c1cccnc1)N1CCOCC1)C(=O)Nc1cccc(Cl)c1 (configuration not stated),"inconclusive [inhibitor, single point]"
4,O=C(N/N=C/c1cccs1)c1cc(C2CC2)nc2ccccc12,active: 3.66 µM
5,C/C(=N\NC(=O)C12CCC(C)(C(=O)O1)C2(C)C)c1ccccc1O (configuration not stated),active: 16.4 µM
6,O=C(Nc1ncccc1O)c1cccc(S(=O)(=O)N2CCc3ccccc32)c1,"inconclusive [inhibitor, single point]"
7,CCN(Cc1ccccc1)C(=O)COC(=O)Cc1c[nH]c2ccccc12,inactive
8,CN(C(=O)c1cc2ccccc2o1)c1c(N)n(Cc2ccccc2)c(=O)[nH]c1=O,"inconclusive [inhibitor, single point]"
9,Cc1cc(C)nc(Nc2nc3ccccc3s2)n1,inactive
10,COC(=O)/C(=C\c1cccnc1)NC(=O)c1ccc(OCc2ccccc2)cc1,"inconclusive [inhibitor, single point]"
11,C#Cc1ccc(NC(=O)C2(C)CCN2C(=O)Cc2ccc(C(C)(C)C)cc2)cc1 (configuration not stated),active: 20.6 µM
12,Cc1ccc(C)c(N2CCN(C(=O)C(C)n3nc(C)c4sc5ccccc5c4c3=O)CC2)c1 (configuration not stated),inactive
13,Cc1cc(C(=O)Nc2ccncc2)c(C)o1,"inconclusive [inhibitor, single point]"
14,COc1cccc(-c2nnc(-c3ccc4ccccc4c3)o2)c1,"inconclusive [inhibitor, partial curve]"
15,COc1cccc(-n2cc(C(=O)NCCc3cccc(C)c3)c3ccccc3c2=O)c1,"inconclusive [inhibitor, partial curve]"
16,CCCc1ccc(OCC(O)CN2CCN(C(=O)OCC)CC2)cc1 (configuration not stated),"inconclusive [inhibitor, single point]"
17,CCCCCC(=O)Cc1cc(O)cc(O)c1C(=O)Oc1cc(CC(=O)CCCCC)c(C(=O)O)c(OC)c1,inactive
18,Cc1cccc(S(=O)(=O)NC(=O)C2(C)CCN2C(=O)c2c(C)noc2C)c1 (configuration not stated),inactive
19,CC(=O)c1c(OC(=O)c2cccc(Cl)c2)c2ccccc2n1C,"inconclusive [inhibitor, single point]"
20,CCC(C)NC(=O)COC(=O)c1csc2c1CCCC2 (configuration not stated),inactive
21,CCC(C)N(CC(=O)Nc1cccc(C)c1C)C(=O)CCl (configuration not stated),"inconclusive [inhibitor, full curve, poor fit]"
22,CN(C)c1ccc(CNC(=O)CC[C@H]2O[C@@H](n3cnc4c(NC(=O)c5ccccc5)ncnc43)[C@H](O)[C@@H]2O)cc1,inactive
23,COc1ccc(OCCOC(=O)C(C)NS(=O)(=O)c2ccc(NC(C)=O)cc2)cc1 (configuration not stated),inactive
24,Cc1cc(C(=O)NC2CCCc3c2cnn3-c2cc(F)cc(F)c2)nn1C (configuration not stated),"inconclusive [inhibitor, single point]"
